In the supplement of paper PMC11417369:
± gives the standard deviation of the averaged measurements. The list shows a part of the results.

These sequences were tested on PfAP2-I AP2 domain 3 (GST-tagged) (assay: gcPBM binding intensity (ln(normalized median fluorescence intensity)); higher = stronger DNA binding).
Summary of the method: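 Each value is the highest Masliner-normalised natural-log median intensity across replicate spots of either orientation of a probe. The probes were primer-extended double-stranded 36-bp intergenic genomic sequences on an Agilent 4 × 180k array, alongside negative controls, exposed for 1 h to GST-tagged P. falciparum DNA-binding domains expressed in E. coli. Bound protein was picked up with Alexa488 anti-GST antibody and scanned at 488 nm.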

| Sequence | gcPBM binding intensity (ln) |
| --- | --- |
| AAACAATTTGGGTGTACACATGATACGTTCGATGAG [CACACA_site5160] | 8.3 ± 0.59 |
| ATATTATACATTTATACACACATAAAAAGACAAAAA [CACACA_site3565] | 7.99 ± 0.46 |
| AAATGTTAAAAAGAGAAAAACAATAAAAAACAATTA [CACACA_negctrl_site1044] | 7.66 ± 0.44 |
| AGGTGTCATAGATGCACACAAAAGTAACACGCACCT [CACACA_site4418] | 9.27 ± 0.26 |
| AAAAGGTTATCAAAATGTACGAAATGTTACAAAAAT [XGTACX_site6215] | 7.77 ± 0.67 |
| AGTTATATGTACTACACACGTACACAAAATAAGATA [CACACA_site3719] | 8.55 ± 0.028 |
| CTTAATTTTTTTTAATGTACATACATATAAACCTTT [XGTACX_site2233] | 7.96 ± 0.45 |
| AAGGAGAAATATTGCACACGTGCAAAATGGTATGAG [CACACA_site259] | 11.1 ± 0.35 |
| TATTCTTTTATGAATACACACATATACGAAAATATT [CACACA_site6585] | 7.58 ± 0.63 |
| AAAATTAAAAATAACACACACATATTTATATTTATA [CACACA_site7329] | 7.59 ± 0.4 |
| AAAATTTTTTTTGGCGCACACTAATAATAAAATATA [CACACA_site470] | 8.6 ± 0.24 |
| GAATAATATGGACATACACACATATACATACCTATA [CACACA_site7075] | 8.07 ± 0.59 |
| AAATATTATTGACGATGTACTTCTATTCATAAGTAT [XGTACX_site3964] | 7.55 ± 0.5 |
| CTTTTTAATGAATACACACACACACCGATATATATA [CACACA_site5296] | 8.22 ± 0.64 |
| TAAAACTTATACAAATGTACAAATATATATATATAT [XGTACX_site4661] | 9.27 ± 0.26 |
| AGACGATAAATCATTCATTCATTTACCATCCAAAAA [CACACA_negctrl_site802] | 7.53 ± 0.65 |
| TTTTAATTAGTACAAACACACATATACAGACAAAAA [CACACA_site2563] | 8.29 ± 0.4 |
| TAATATAGAAAATGCATACACACTTTATATATATAT [CACACA_site911] | 9.02 ± 0.014 |
| TACTATTATTATTGCACACTTATTATCCCTCGGATA [CACACA_site162] | 10.5 ± 0.41 |
| AATATATATTAATACACACACACATATATATATATA [CACACA_site3786] | 9.43 ± 0.57 |
| TGATCATAGAAACACACACACAAAAAAAAAAAAAAA [CACACA_site4008] | 8.12 ± 0.65 |
| TTATTATTAGAAAAAAGTACACATATAAAATGTTAC [XGTACX_site6426] | 7.82 ± 0.092 |
| GGATACATATGTAAAAGTACACATGAATATATACAT [XGTACX_site6469] | 7.67 ± 0.52 |

| Sequence | gcPBM binding intensity (ln) |
| --- | --- |
| GTAAAATTAAAAATAACACACAAAAAAAAAAAAAAA [CACACA_site800] | 8.09 ± 0.76 |
| AAAAAAAAAAGAAAAAGTACATACATACATATATAT [XGTACX_site6405] | 7.88 ± 0.83 |
| TTGATAAAATCACTGGTGCATGTAGATATATAATAT | 9.46 ± 0.11 |
| AATAAACATTATTTTCGTATTCCAATTCTTTTTTTT [XGTACX_negctrl_site374] | 7.42 ± 0.94 |
| TTCTTTTTTATTTATACATGCAATAAAAAATTGATT [TGCATGCA_site730] | 8.355 ± 0.078 |
| TTTTTTTAAAACAAAAAAAAAAAAAAAAAAAAAAAA [TGCATGCA_negctrl_site418] | 8.21 ± 1.2 |
| AAGAGAGAGAAATATGCACACATAAGGGAAATAAAT [CACACA_site8300] | 8.895 ± 0.049 |
| TATATATGTATGTATGTACACACAAAAAATGGAATA [CACACA_site9235] | 8.05 ± 0.45 |
| AAAAAAAAGAAAAACACACACATATTTATTTATAAC [CACACA_site6600] | 7.54 ± 0.66 |
| TAAATAAATTTATGTACACACACAAATAAATACATA [CACACA_site5107] | 7.85 ± 0.2 |
| TATATATTAAATTATAGTACACATTATATATAATTA [XGTACX_site4841] | 7.72 ± 0.11 |
| TATATATATATATATAGTACACATATCACATAAATG [XGTACX_site6379] | 9.6 ± 0.49 |
| ATAATATATGTATGTATGCACTTTTATTATTTTTTT | 8.96 ± 0.15 |
| ATAATATATATATTTTGTACACATGAAAAGGAGGAT [XGTACX_site5034] | 8.47 ± 0.6 |
| ATCTTTCAATAATTCACACATATATATATATATATA [CACACA_site4598] | 9.49 ± 0.69 |
| ATATATATATATGTACACATATATGTGTTTGTTTTT [GTGCAC_negctrl_site5] | 9.54 ± 0.2 |
| CTATTACAAAGAAATTGTACATATATATATAAAAAC [XGTACX_site8800] | 8 ± 0.7 |
| AATGAAGACTTTTTTACACACTTCATATCTTATAGA [CACACA_site7046] | 7.79 ± 0.81 |
| AGCCACAATACGGAAACACACAAGTTATTTTATCAT [CACACA_site2724] | 7.79 ± 0.51 |
| AATATTTTTAATTAATGTACATATTTATTATATAAA [XGTACX_site5112] | 7.71 ± 0.38 |
| AAATTTTTTCCGATTTGTACTTATATTTCTTTATTA [XGTACX_site1762] | 7.93 ± 0.59 |
| TTTTTATGAATTCTTTTGTTAATAATAATATGTTGT [TGCATGCA_negctrl_site198] | 7.56 ± 0.62 |
| TTTTAACGTAATTCAAATGAGCAGAATTTTTTAAAA [CACACA_negctrl_site1800] | 7.46 ± 0.42 |

| Sequence | gcPBM binding intensity (ln) |
| --- | --- |
| TATAATAATACTTATTGTACTATTAGTTTAATTCAT [XGTACX_site6638] | 7.46 ± 0.33 |
| TATATAAATATACACCCACACACATATATATATATA [CACACA_site9247] | 9.54 ± 0.49 |
| AATAATTTAATACATACACACGTATATCTTTTTTTT [CACACA_site8632] | 7.75 ± 0.57 |
| TATATATATAACATATGTACATATATTTATAAATAC [XGTACX_site5484] | 8.44 ± 0.31 |
| TATAAAAAAAAATGTGGTACATATTTCCATTTTCCA [XGTACX_site4571] | 7.44 ± 0.34 |
| ATCGTAGTATAATATGAACACACACCCACCCACAAA [CACACA_site8616] | 8.89 ± 0.69 |
| TATATTCCACTCATTGATTTTCTCTTCTCACAAAAA [CACACA_negctrl_site1016] | 8.29 ± 0.19 |
| CATGAATTTTTTTAATGTACATTCACATCATAAAAA [XGTACX_site7475] | 7.92 ± 0.4 |
| ATATATTATATATATAGTACGTATATAAATTTAATT [XGTACX_site5041] | 7.79 ± 0.4 |
| GAAACTATGTAATGCACACCAAAATAAAATTATTAA [CACACA_site1904] | 10.9 ± 1 |
| TCTTCTTAACCAACTATGAAAAGGAAAAATATAACA [GTGCAC_negctrl_site565] | 7.67 ± 0.46 |
| TAAATCCGCACGCACACACACATATTAATAAAAAAA [CACACA_site7800] | 8.93 ± 0.042 |
| ATTATAAAAAAGAAACGTACATATTTATTGTTTTTT [XGTACX_site2161] | 7.75 ± 0.42 |
| AAACTAACTCTAACATGTACATATATATATATATAT [XGTACX_site6949] | 9.33 ± 0.52 |
| GCTTATTTTAATTCTTGTACTTATTTATATACAAAT [XGTACX_site2099] | 8.25 ± 0.54 |
| TAATGGTGTTCATGTGGTACACTTTATAAATTGGCA [XGTACX_site729] | 7.9 ± 0.47 |
| TTGAAAATTCTTAAGGCACACACATATATAATATAT [CACACA_site8088] | 9.98 ± 0.32 |
| TTTTGAAGTAATACATGTACTTAAATTACTAAAAAA [XGTACX_site1955] | 7.72 ± 0.53 |
| ACTTTGCGTTAAAAGAGTACATAATATTTTTTTTTT [XGTACX_site7533] | 8.1 ± 0.39 |
| ATACTTTATTAATATTGTACAAAATAAGAAAAAAAA [XGTACX_site310] | 7.75 ± 0.39 |
| CACAACAGGGTTGAGGTGCGTAAAAATAGTAGAATA [GTGCAC_site9523] | 10.05 ± 0.028 |
| ACATAAAAATTATGCACACTTAATAAAGCGAAATGT [CACACA_site3183] | 9.99 ± 0.53 |
| TATATATATATGTGTACACAAAAAATATTATATTAT [CACACA_site5505] | 9.44 ± 0.099 |

| Sequence | gcPBM binding intensity (ln) |
| --- | --- |
| TTTTTAATCCTTTGCGCATGTAAAATTATATATTTT [TGCATGCA_site306] | 8.3 ± 0.71 |
| ACATAATTATTATGCACACATATTTTTATGTATTTA [CACACA_site698] | 10.3 ± 0.48 |
| ATTCTATTTTTAAGTACACACATATATATATATATA [CACACA_site3658] | 9.45 ± 0.33 |
| TCATATAAGTTTAGTAGTACTAAAAGTTAGAGAGAA [XGTACX_site3430] | 7.98 ± 0.35 |
| AAATAAGAGCGTAGCACACACGCATTTTATAAATGG [CACACA_site4571] | 7.59 ± 0.71 |
| AAAACAAAAGAATTCACACATATATATATATATATA [CACACA_site4777] | 9.29 ± 0.11 |
| TGATTATTATAATTTAGTACATAATATTTTATATAA [XGTACX_site6125] | 7.51 ± 0.28 |
| CAAGGAACCAGACACACACACATAAATGTATATATA [CACACA_site752] | 7.74 ± 0.45 |
| ATATATGGAAAGAGTAGTACTATTATAGGGGTGTTA [XGTACX_site6785] | 7.9 ± 0.67 |
| TTAAACGTACATAATACACACACATGTAGACATATA [CACACA_site8635] | 8.19 ± 0.28 |
| AAAATTAACGAGTGCACACATATTTAGATAAAATAC [CACACA_site2936] | 9.99 ± 0.19 |
| AAAATTAAACATACATCACACATGCATTATATTATG [CACACA_site5517] | 7.99 ± 0.78 |
| AAAAAACTTCACATATGTACTTAAAAAAAATTAAAA [XGTACX_site2368] | 7.79 ± 0.16 |
| GAACATTACGTAAATAAATAAATAAAAATAAATACA [XGTACX_negctrl_site25] | 7.63 ± 0.43 |
| ATAAAGTCTATATTATGTACATATAATATAAATATT [XGTACX_site6703] | 8.16 ± 0.28 |
| CAAAAAAAAATCTGTAGTACTTATTAATATTGCTGT [XGTACX_site4767] | 7.72 ± 0.18 |
| TATTGTCTTGTATATGCATGTAGACCAAATATGTAA [TGCATGCA_site9] | 8.05 ± 0.56 |
| AAATCAAATTTTTAGAGTACTTAAGTTTTCTATATA [XGTACX_site7827] | 7.63 ± 0.5 |
| ATCACAAAAAAGTTCATACACACAACCTATTTATAT [CACACA_site2888] | 7.76 ± 0.57 |
| TCCCCATATGTTTTGTGTACATATATATTTTTTTGT [XGTACX_site75] | 8.46 ± 0.3 |
